Test results as given in article PMC9235362 (Journal of medicinal chemistry, 2021).
Read-outs that look alike come from different tables or passages of the source.

Biological target: human 5-HT2ARs (Homo sapiens, UniProt P28223)
Details: [125I](±)DOI

Chain of UniProt P28223 (P28223 whole entry): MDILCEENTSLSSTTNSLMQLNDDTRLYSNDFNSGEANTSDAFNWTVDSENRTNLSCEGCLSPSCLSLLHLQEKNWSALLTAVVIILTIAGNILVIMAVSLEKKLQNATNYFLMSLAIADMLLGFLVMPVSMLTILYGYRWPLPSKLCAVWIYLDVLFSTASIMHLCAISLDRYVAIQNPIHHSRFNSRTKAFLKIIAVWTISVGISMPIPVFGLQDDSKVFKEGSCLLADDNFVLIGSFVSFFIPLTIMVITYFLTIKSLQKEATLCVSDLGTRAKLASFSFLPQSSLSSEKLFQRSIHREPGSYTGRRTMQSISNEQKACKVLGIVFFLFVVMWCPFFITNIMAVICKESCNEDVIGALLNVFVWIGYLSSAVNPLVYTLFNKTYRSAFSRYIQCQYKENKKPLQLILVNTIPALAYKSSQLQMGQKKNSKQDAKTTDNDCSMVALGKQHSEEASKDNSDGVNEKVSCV

| Compound | Percent displacement of radioligand, 5-HT2A (100 nM alkaloid) | Percent displacement of radioligand, 5-HT2A (10,000 nM alkaloid) |
| --- | --- | --- |
| CC[C@@H]1CN2CCc3c([nH]c4cccc(O)c34)[C@@H]2C[C@@H]1/C(=C\OC)C(=O)OC [9-hydroxycorynantheidine] | −6.5% | 28.4% |
| Methyl(4S,4aR,13bS,14aS)-4-methyl-4a,5,7,8,13,13b,14,14a-octahydro-4H-indolo[2,3-a]pyrano[3,4-g]quinolizine-1-carboxylate [ajmalicine] | 5.1% | 36.5% |
| CC[C@H]1CN2CCc3c([nH]c4cccc(OC)c34)[C@@H]2C[C@@H]1/C(=C\OC)C(=O)OC [speciogynine, Methyl(E)-2-((2S,3R,12bS)-3-ethyl-8-methoxy-1,2,3,4,6,7,12,12b-octahydroindolo[2,3-a]quinolizin-2-yl)-3-methoxyacrylate] |  | 82.7% |
| CC[C@@H]1CN2CCc3c([nH]c4ccccc34)[C@@H]2C[C@@H]1/C(=C\OC)C(=O)OC [corynantheidine] | −6.8% | 28.7% |
